In ChEMBL document CHEMBL1201862, “PubChem BioAssay data set” (2004):

system: NCI-H322M; assay: DTP human tumour cell line panel, 48 h

Structure (SMILES)	GI50
Cc1nc2c(Br)cc(Br)cc2c(=O)n1-c1ccccc1NC1OC(CO)C(O)C(O)C1O (stereo not given)	inactive: > 100 µM
CN1/C(=C/C=C/C=C/C=C2C(=O)c3ccccc3C2=O)C(C)(C)c2ccccc21	inactive: 65 µM
O=[N+]([O-])c1ccc(-n2nnc(C3=NCCN3)c2-c2ccc(Cl)cc2)cc1	inactive: > 100 µM
COc1cc(Br)cc2cc(-c3cn4c(n3)sc3ccccc34)c(=O)oc12	inactive: 19.4 µM
O=C(O)C1OC1(c1cccc(Cl)c1)c1ccccc1Cl (stereo not given)	inactive: 42.1 µM
O=C(NCc1ccc2ccc3cccnc3c2n1)c1ccc[n+](Cc2ccccc2)c1	inactive: 51.5 µM
COc1ccc(C(=O)c2sc(N(C)C)nc2-c2ccccc2)cc1	inactive: 96.2 µM
COC(=O)[C@@]12CC[C@]1(C(=O)OC)C1C(C)=CC(=O)O[C@@]12C (stereo not given in full)	inactive: > 100 µM
O=C1C(=O)N(C(=O)c2ccc(Cl)c(Cl)c2)c2ccccc21	inactive: > 100 µM
CCN(CC)CCNC(=O)c1cc2cc(NC(=O)c3cc4cc(NC(=O)c5cc6cc([N+](=O)[O-])ccc6[nH]5)ccc4[nH]3)ccc2[nH]1	inactive: > 100 µM
Cc1cn(CC2=NCC(C)N2)c(=O)[nH]c1=O (stereo not given)	inactive: > 100 µM
COc1cc(Nc2nnc3n2S(=O)(=O)c2cc(C)c(Cl)cc2S3)cc(OC)c1	inactive: 27.5 µM
O=C1OC2C=CCC1C2 (stereo not given)	inactive: > 100 µM
CC(C)CCC[C@@H](C)C1CCC2[C@@H]3CC=C4C[C@@H](C(=O)NCCN(C)C)CC[C@]4(C)C3CC[C@@]21C (stereo not given in full)	inactive: 39.4 µM
N=CCCN(CCC=N)c1ccc(/C=C2\CN(NC(=O)c3ccc(Cl)cc3)C(c3ccccc3)=N2)cc1	inactive: > 100 µM
COC(=O)[C@]1(C)[C@H]2C[C@H]3O[C@H]4[C@H](O)[C@@H](O)OC(CC(O)C(C5=CC(=O)OC5)C(C5=CC(=O)OC5)C(O)CC56CCCCC7[C@@H](C)[C@H](C[C@H]8[C@](C)(C(=O)OC)[C@H](O)CC[C@]78C)O[C@H]([C@@H](O)[C@H](O)O5)[C@H]6O)(CCCCC([C@@H]3C)[C@]2(C)CC[C@@H]1O)[C@H]4O (stereo not given in full)	active: 0.0476 µM
CCCc1cn2c(/C=N/N=C(N)N)c(-c3c(OC)ccc(OC)c3[N+](=O)[O-])nc2s1	inactive: 13.9 µM
COC1/C=C\C=C(/C)C(=O)NC2=CC(=O)C(N)=C(CC(C)CC(OC)C(O)C(C)C=C(C)C1OC(N)=O)C2=O (stereo not given)	inactive: 12.3 µM
CC(C)(C)S(=O)OC12CC3CC(CC(C3)C1)C2 (stereo not given)	inactive: > 100 µM
COC(=O)C1CCC(=O)N1CN(C(C)=O)c1cccc(O)c1 (stereo not given)	inactive: > 100 µM
CN(C)c1ccc(/N=N/c2ccc3[nH]cnc3c2)cc1	inactive: 33.2 µM
Cc1c[nH]c(C(=O)O)c1-c1ccc2c(-c3ccccc3)nc3ccccc3n12	inactive: 36.3 µM
CCOC(=O)NC(Nc1ccc([N+](=O)[O-])cc1)(C(F)(F)F)C(F)(F)F	inactive: > 100 µM

Structure (SMILES)	GI50
COc1ccc(NC(C)=O)cc1N1C(=O)/C(=C\c2cc(OC)c(OC)c(OC)c2)SC1c1ccccc1 (stereo not given)	inactive: 78.7 µM
CCC(CCCN)Nc1cc(OC)cc2cccnc12 (stereo not given)	inactive: > 100 µM
CC#CCCCC1(C)CCNC1=S (stereo not given)	inactive: > 10 µM
N#Cc1c(=O)c2ccccc2n2ccccc12	inactive: > 100 µM
Cc1cc(C)c(-n2c(C)c(C)c(C#N)c2N)c(C)c1	inactive: 56.5 µM
Clc1ccc(C2N3CCCCC3[C@@H]3c4[nH]c5ccccc5c4CCN23)cc1 (stereo not given in full)	inactive: 65.6 µM
CCSc1nc(N2CCCC2)s[s+]1.[O-][Cl+3]([O-])([O-])[O-]	inactive: 81.8 µM
O=S(=O)(O)c1ccc(/N=N/c2ccc(/N=N/c3c(O)c(S(=O)(=O)O)cc4cc(S(=O)(=O)O)ccc34)cc2)cc1	inactive: > 100 µM
C[N+](C)(C)C(Cc1c[nH]c(=S)[nH]1)C(=O)O (stereo not given)	inactive: > 100 µM
Cc1c(C)c2ccc(O)cc2[nH]c1=O	inactive: > 100 µM
CCSC1=N/C(=C\c2ccco2)C(Nc2ccc(C)cc2)=N1	inactive: > 100 µM
Cc1ccc(NC(=O)c2cccc(OP(=O)(O)Nc3ccc(C)cc3)c2)cc1	inactive: > 100 µM
CC(=O)OC12c3ccccc3-c3ccccc3C1C1C(=O)OC(=O)C12 (stereo not given)	inactive: > 10 µM
C[C@@H]1CC[C@@]2(C)OC(c3ccccc3)[C@H](CO)N2C1=O (stereo not given in full)	inactive: > 100 µM
CC1CC[C@]2(C(=O)O)CCC3(COC(=O)/C=C\c4ccc(O)cc4)C(=CCC4[C@@]5(C)CC[C@H](O)C(C)(C)C5CC[C@]43C)[C@@H]2[C@H]1C (stereo not given in full)	inactive: 16.6 µM
CC1=CCC(=O)[C@]2(C)C(CC(=O)O)[C@]3(C)C4=C(C)C(c5ccoc5)C[C@@H]4O[C@@H]3[C@H](O)[C@@H]12 (stereo not given in full)	inactive: > 100 µM
CN1CC(=O)N(C)c2[nH]cnc2C1=O	inactive: > 100 µM
O=C(O)/C=C(/CC(=O)O)C(=O)O	inactive: 25.7 µM
COc1cc2c(c(OC)c1OC)-c1ccc(SC)cc1[C@H](OC(=O)c1ccccc1)CC2	active: 0.104 µM
Cc1c2ccncc2c(C)c2c1[nH]c1ccc(OC(C)C)cc12	inactive: 1.28 µM
COc1ccc2c(=O)cc(-c3ccc(OC)c(OC)c3OC)oc2c1	inactive: > 100 µM
COc1cc(/C=C\c2ccc(OC(C)=O)cc2)cc(OC)c1OC	active: 0.631 µM

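How tested: cells in 96-well plates exposed to compound for 48 hours at five concentrations. Here, GI50 denotes the concentration required for 50% inhibition of growth.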 Calls of active or inactive are those of the source. Rule as the data show it: active = GI50 up to about 1.1 µM and inactive = higher.
